Reference: paper PMC4336329 (PLoS ONE, 2015)
Hit rate of the full screen: of about 310,000 compounds, about 2,200 (0.71%) showed an effect of 50% or more. Effects have a minus sign here. Some of the results follow.

Molecular target: human ether-à-go-go-related gene (hERG) potassium channel (human, UniProt Q12809)
Assay: primary screen, population patch clamp on CHO cells stably expressing hERG

Sequence of human ether-à-go-go-related gene (hERG) potassium channel (Q12809 whole entry, looked up): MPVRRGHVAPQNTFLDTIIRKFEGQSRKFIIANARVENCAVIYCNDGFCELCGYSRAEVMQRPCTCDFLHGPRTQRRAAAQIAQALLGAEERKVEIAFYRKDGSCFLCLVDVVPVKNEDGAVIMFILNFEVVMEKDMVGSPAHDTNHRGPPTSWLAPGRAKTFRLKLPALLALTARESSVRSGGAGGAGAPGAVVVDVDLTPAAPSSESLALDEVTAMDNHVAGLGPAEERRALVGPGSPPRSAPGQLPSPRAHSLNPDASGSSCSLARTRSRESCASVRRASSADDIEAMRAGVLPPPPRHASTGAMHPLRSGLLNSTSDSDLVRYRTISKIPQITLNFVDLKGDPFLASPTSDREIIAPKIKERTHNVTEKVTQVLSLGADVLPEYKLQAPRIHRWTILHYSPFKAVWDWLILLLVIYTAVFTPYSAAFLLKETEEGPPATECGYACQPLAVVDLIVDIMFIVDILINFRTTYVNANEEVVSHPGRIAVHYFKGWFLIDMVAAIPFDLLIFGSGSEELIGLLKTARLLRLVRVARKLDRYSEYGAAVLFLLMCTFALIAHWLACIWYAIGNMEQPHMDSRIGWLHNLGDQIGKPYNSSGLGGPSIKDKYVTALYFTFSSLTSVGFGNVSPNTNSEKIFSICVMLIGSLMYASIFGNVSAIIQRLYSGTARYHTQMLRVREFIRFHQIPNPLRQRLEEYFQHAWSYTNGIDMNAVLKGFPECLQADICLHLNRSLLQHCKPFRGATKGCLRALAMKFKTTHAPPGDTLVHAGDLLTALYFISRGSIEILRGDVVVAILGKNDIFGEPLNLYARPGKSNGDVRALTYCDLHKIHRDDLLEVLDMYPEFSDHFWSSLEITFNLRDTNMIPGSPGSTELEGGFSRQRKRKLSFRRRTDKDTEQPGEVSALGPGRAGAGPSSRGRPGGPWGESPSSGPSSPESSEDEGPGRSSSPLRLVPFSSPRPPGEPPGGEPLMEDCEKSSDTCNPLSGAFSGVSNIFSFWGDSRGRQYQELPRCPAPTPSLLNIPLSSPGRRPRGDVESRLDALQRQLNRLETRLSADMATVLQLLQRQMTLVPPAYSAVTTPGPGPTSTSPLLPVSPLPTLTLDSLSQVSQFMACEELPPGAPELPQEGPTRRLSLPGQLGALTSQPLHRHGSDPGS

| Compound | hERG current change (%, negative = inhibition) at 1uM [%] |
| --- | --- |
| O=C1N=C(N2CCc3ccccc3C2)S/C1=C\c1ccc(O)cc1 | 10.3 |
| Cc1c(NC(=O)c2ccc3nsnc3c2)cccc1[N+](=O)[O-] | 14.9 |
| COc1ccc(CN2CCOCC2)cc1OC | 5.79 |
| COC(=O)Nc1ccc(S(=O)(=O)NNC(=O)c2c(O)c3ccccc3n(C)c2=O)cc1 | 35.7 |
| O=C(COC(=O)CCc1nc2ccccc2c(=O)[nH]1)Nc1ccc(Cl)cn1 | 8.63 |
| CCS(=O)(=O)NCC(c1cccnc1)N1CCN(c2ccccc2F)CC1 (stereo not shown) | 14.4 |
| CC(=O)N1CCc2cc(S(=O)(=O)NCCC(=O)NCCc3ccc(Cl)cc3)ccc21 | 10.7 |
| CC(=O)Nc1sc(C)c(C)c1C(=O)OCC(=O)Nc1cc(S(C)(=O)=O)ccc1Cl | 8.66 |
| CC1CCCC(NC(=O)CCNC(=O)c2ccc(Br)cc2)C1C (stereo not shown) | 14.1 |
| CCOC(=O)c1c(NC(=O)C(=O)N/N=C/c2ccc(O)c(OC)c2)sc2c1CCCCC2 | 3.13 |
| Cc1ccc(/C=N/NC(=O)C(C)Oc2ccccc2[N+](=O)[O-])s1 (stereo not shown) | 6.63 |
| O=C(Nc1ccc(-c2noc(-c3cccs3)n2)cc1)c1cccnc1 | 7 |
| O=C(/C=C/c1ccccc1Cl)NCCN1CCOCC1 | 1.11 |
| CC(=O)Oc1ccc(N2C(=O)[C@@H]3[C@H](C2=O)[C@H]2c4ccccc4C=NN2[C@@H]3C(C)=O)cc1 | 0.504 |
| CNC(=O)c1c(NC(=O)CCS(=O)(=O)c2ccc(C)cc2)sc2c1CCN(C(=O)OC)C2 | 1.06 |
| Cc1cccc(C(=O)N/N=C/c2cc(Br)c(Br)o2)c1 | 1.03 |
| COCCN(CCOC)c1nc(N)c2c(N)nc3c(c2c1C#N)CC(=O)N3Cc1ccc(Cl)cc1 | -14 |
| Cc1ccc(S(=O)(=O)[N-]c2nc3ccccc3nc2-n2cc[n+](Cc3ccccc3)c2)cc1 | 8.75 |
| Cc1ccc(C)c(S(=O)(=O)N(C)Cc2cccs2)c1 | 1.44 |
| COc1cc(C(=O)N/N=C/c2cc([N+](=O)[O-])cs2)cc(OC)c1OC | 0.725 |
| Cn1cc(C(=O)N/N=C/C(Br)=C\c2ccccc2)ccc1=O | 6.73 |
| NC(=O)c1ccsc1NC(=O)COC(=O)/C=C/c1ccccc1 | 2.34 |

| Compound | hERG current change (%, negative = inhibition) at 1uM [%] |
| --- | --- |
| Cc1cc(C(=O)NNC(=S)NCc2ccccc2)cs1 | 13.7 |
| CCOc1cc(C2/C(=C(/O)c3ccc(S(=O)(=O)N4CCCCC4)cc3)C(=O)C(=O)N2CCOC)ccc1O (stereo not shown) | 12.1 |
| O=C(NCCCN1CCOCC1)c1cc2c(s1)CCC2 | 13.3 |
| CC(NC(=O)c1ccco1)C12CC3CC(CC(C3)C1)C2 (stereo not shown) | 7.25 |
| CCc1noc(C)c1C(=O)OCC(=O)Nc1c(F)cccc1F | 11.1 |
| Cc1ccc(OCCC(=O)OCC(=O)Nc2ccc(C)cc2Cl)cc1 | 2.07 |
| COc1ccc(CCN=C(N)NS(=O)(=O)c2ccc(F)cc2)cc1 | 14.6 |
| Cc1c(C(=O)Nc2ccc(F)cc2)oc2ccc(S(=O)(=O)N3CCCC3)cc12 | 10.1 |
| COc1ccc(N=C(C)c2c(O)n(C)c(=O)n(C)c2=O)c(OC)c1 | 12.8 |
| COc1ccc(Cc2nnc(Nc3c(C)cccc3C)o2)cc1OC | 8.63 |
| CCc1nc(SC)[nH]c(=O)c1C | 9.67 |
| c1csc(-c2nnc(COc3ncnc4sccc34)o2)c1 | -0.113 |
| CC1CCN(C(=O)CSc2nnc(Cn3c(=O)sc4ccccc43)n2C)CC1 | -0.706 |
| Cc1cc(C)c(S(=O)(=O)Nc2ccc(N3CCOCC3)cc2)c(C)c1 | 13.5 |
| Cc1cc(=O)n2nc(N3CCCC(C(=O)N4CCc5ccccc54)C3)sc2n1 (stereo not shown) | -13.3 |
| Clc1ccccc1C1=Nn2c(nnc2-c2ccncc2)SC1 | 3.57 |
| COC(=O)c1cccc(Cn2c(Cl)c(/C=N/NC(=O)c3ccco3)sc2=O)c1 | 22.6 |
| NC(=O)c1ccsc1NC(=O)COC(=O)C1CCCN1C(=O)c1cccs1 (stereo not shown) | -33.7 |
| CCn1cc(Br)c(C(=O)Nc2ccc(F)cc2F)n1 | 5.46 |
| Cc1ccc(SCC(=O)NCc2cccnc2)cc1 | 1.62 |
| Brc1cccc(OCCSc2ncccn2)c1 | 15.8 |
| COc1ccc(C(=O)Nc2nc(N3C(=O)c4ccccc4C3=O)n(-c3ccccc3)n2)cc1 | 3.14 |

| Compound | hERG current change (%, negative = inhibition) at 1uM [%] |
| --- | --- |
| Cc1c(C(=O)NCCCN2CCOCC2)sc2nc(-c3ccccc3)cn12 | -13.8 |
| C/C(=N\NC(=O)c1ccccc1O)C1CC1 | 5.92 |
| COc1ccc(Oc2cccc(Cl)c2CNC(=O)CCCC(=O)O)cc1 | 7.74 |
| CC(C)Cc1cc(C(=O)Nc2ccc(Br)cc2)no1 | 6.97 |
| O=C(COC(=O)C12CC3CC(CC(Br)(C3)C1)C2)NNC(=O)c1ccccc1 | 10.7 |
| O=C(COc1ccc(Cl)cc1)NCCNc1ccc([N+](=O)[O-])cc1 | -11.1 |
| O=C(NC(Nc1nc2ccc([N+](=O)[O-])cc2s1)(C(F)(F)F)C(F)(F)F)c1ccccc1 | 1.75 |
| O=C(CCC(=O)N1C[C@H]2C[C@@H](C1)c1cccc(=O)n1C2)NCc1ccccc1 | 6.89 |
| COc1cc(NC(=O)CCCSc2nc(-c3ccco3)cc(C(F)(F)F)n2)cc(OC)c1OC | 5.75 |
| CC(=O)N1CCN(CC(=O)Nc2ccc([N+](=O)[O-])cc2Br)CC1 | -60.4 |
| Cc1ccc(OS(=O)(=O)c2c(C)nn(C)c2Cl)c(C)c1 | 0.411 |
| COc1cccc(-c2nc(CS(=O)(=O)CC(=O)NCCCN3CCN(C)CC3)c(C)o2)c1 | 11.2 |
| O=C(O/N=C\c1ccc(N2CCCCC2)c([N+](=O)[O-])c1)c1c(F)cccc1F | 14.8 |
| Cc1[nH]c2ccccc2c1C(=O)C(=O)N1CC2CC(C1)c1cccc(=O)n1C2 (stereo not shown) | 3.01 |
| C=CCn1c(SCC(=O)NC2CCCC2)nc2scc(-c3ccco3)c2c1=O | 16.5 |
| CCC(C)NC(=O)CS(=O)Cc1nc(-c2ccccc2C)oc1C (stereo not shown) | 12.8 |
| Cc1cccc(OCC(=O)NC(=S)Nc2ccccc2N2CCOCC2)c1C | 0.988 |
| Cc1ccc(SCCNC(=S)Nc2ccc(C)c(C)c2)cc1 | 12.7 |
| O=C(Cc1ccccc1)N1CCN(c2ccc([N+](=O)[O-])cc2)CC1 | -36.4 |
| Brc1c(CSc2nncc3ccccc23)nc2ccccn12 | 8.64 |
| Cc1cc(C)nc(SCc2cc(=O)c(OC(=O)c3ccc(Br)o3)co2)n1 | -2.69 |
| O=C(CCNS(=O)(=O)c1ccccc1C(F)(F)F)N1CCN(C(c2ccccc2)c2ccccc2)CC1 | -2.17 |

| Compound | hERG current change (%, negative = inhibition) at 1uM [%] |
| --- | --- |
| Cc1cc(C)c(S(=O)(=O)Cc2ccccc2)c(OC(C)C)n1 | 3.33 |
| O=C(O)CSc1nnc(-c2ccc3c(c2)OCO3)n1-c1ccccc1 | 7.16 |
| COc1cc2cc(C(=O)N3CCC(Cc4ccccc4)CC3)[nH]c2cc1OC | 15.7 |
| CCC(C)Oc1nc2c(c(=O)n(C)c(=O)n2C)n1C (stereo not shown) | 7.92 |
| Cc1nn(Cc2ccc(Cl)cc2)c(C)c1NC(=O)c1cc(C(C)C)on1 | 9.39 |
| O=C(COc1ccc2c3c(c(=O)oc2c1)CCC3)NC1CCCCC1 | 8.81 |
| O=C1CC(c2cccs2)Sc2nc3ccccc3n21 (stereo not shown) | 5.7 |
| Cc1ccc(N2C(=O)CCC2=O)c(C)c1 | 11.3 |
| CCOc1ccccc1CNC(=O)c1nn(CC)cc1[N+](=O)[O-] | 14.6 |
| Clc1ccc(-n2c(SCc3nc4ccccc4[nH]3)nnc2-c2ccncc2)cc1 | -6.16 |
| COC(=O)CC1C(=O)NCCN1C(=O)CSc1nc2ccc([N+](=O)[O-])cc2s1 (stereo not shown) | 6.91 |
| CCOC(=O)C1C(C(=O)Nc2cccc(C(F)(F)F)c2)C1C(=O)NC(C)C (stereo not shown) | 11.5 |
| COc1ccc(/C=C(\NC(=O)c2cccs2)C(=O)NCc2ccco2)cc1OC | 9.68 |
| Cc1cccc(-c2cc3nc(C)cc(C)n3n2)c1 | 7.14 |
| CCC1(C)Cc2c(sc3[nH]c(=O)[nH]c(=O)c23)CS1 (stereo not shown) | 7.13 |
| Cc1nc2ccc(C(=O)O)cc2c2c1CC(C)S2 (stereo not shown) | -11.5 |
| O=C(CSc1nc2ccccc2o1)Nc1nccs1 | 0.494 |
| O=C(O)C(=O)O.c1ccc(-c2ccccc2OCCCN2CCOCC2)cc1 | 5.13 |
| COc1ccccc1NC(=O)Cc1nnc(SCC(=O)NC2=NCCS2)n1C | 12.5 |
| CN(CC(=O)Nc1ccc(Cl)cc1)c1ccc(S(=O)(=O)N2CCCCC2)cc1[N+](=O)[O-] | -3.72 |
| NC(=O)C1CCN(C(=O)CSc2nc3ccccc3[nH]2)CC1 | 6.3 |
| COc1ccc(C(=O)N[C@H]2COC(C)(C)O[C@H]2c2ccccc2)cc1 | 1.99 |
